Our source for the growth inhibition call values is the antibiotic and cytotoxicity screens of Wong et al. (2023).

The list shows a part of the results.

For this assay, the system named is S. aureus RN4220. In words: growth inhibition call (relative growth <= 0.2). The following applies: 50 µM.
Regarding `Cc1ccc(Sc2c(-c3ccccc3)nc3sccn23)cc1`, the growth inhibition call was “inactive”.

Consider `Cc1noc(C)c1S(=O)(=O)Nc1cccc2c1O[C@@H](CN(C)S(=O)(=O)c1cccs1)[C@@H](C)CN([C@@H](C)CO)C2=O`, for which the growth inhibition call is “inactive”.

Take `C[C@H](CO)N1C[C@H](C)[C@@H](CN(C)Cc2ccc(-c3ccccc3)cc2)Oc2c(NC(=O)c3ccc(-c4nccs4)cc3)cccc2C1=O`: the growth inhibition call was “inactive”.

For `C[C@@H]1CN([C@H](C)CO)C(=O)c2cccc(N(C)C)c2O[C@H]1CN(C)S(=O)(=O)c1ccc(Cl)cc1`, the growth inhibition call was “inactive”.

As to `C[C@H](CO)N1C[C@H](C)[C@@H](CN(C)C(=O)C2CCOCC2)Oc2cc(C3=CCCCC3)ccc2S1(=O)=O`, the growth inhibition call was “inactive”.

Regarding `CC(C)NC(=O)Nc1cccc2c1O[C@H](CN(C)S(=O)(=O)c1ccc(F)cc1)[C@H](C)CN([C@@H](C)CO)C2=O`, the growth inhibition call was “inactive”.

For the compound `Cc1ccc(S(=O)(=O)N(C)C[C@H]2OCCCC[C@H](C)Oc3ccc(NC(=O)C4CCCCC4)cc3C(=O)N([C@@H](C)CO)C[C@@H]2C)cc1`, the growth inhibition call was “inactive”.

Regarding `C[C@H](CO)N1C[C@H](C)[C@@H](CN(C)S(=O)(=O)c2ccccc2)OCCCC[C@H](C)Oc2ccc(NS(=O)(=O)c3ccc(Cl)cc3)cc2C1=O`, the growth inhibition call is “inactive”.

For `CCCc1nc2c(C)cc(-c3nc4ccccc4n3C)cc2n1Cc1ccc(-c2ccccc2C(=O)O)cc1`, the growth inhibition call is “inactive”.
